# The other results are listed elsewhere or left out.
# Tests used:
# Assay in all cases: glycan array binding signal (z-score within array); higher = stronger binding
# Settings in all cases: glycan notation: IUPAC condensed, linker removed; mutation: Y228A
# [1] = target: Neu5Ac(a2-3)Gal(b1-3)GlcNAc(b1-6)GalNAc
# Procedure, shortened: (§1)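 Glycan array binding is given as a within-array Z-score, which can be read as non-binding when negative. The arrays, 3228 of them, came from the Consortium for Functional Glycomics database and were retained only where the protein sequence was available. Z-scores were averaged across arrays of the same protein sequence at different concentrations or buffers and across linkers.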
# [2] = target: Neu5Ac(a2-3)Gal(b1-3)GlcNAc6S
# Procedure, shortened: as §1
# [3] = target: Neu5Ac(a2-3)Gal(b1-3)[Fuc(a1-4)]GlcNAc
# Procedure, shortened: as §1
# [4] = target: Neu5Ac(a2-3)Gal(b1-3)[Fuc(a1-4)]GlcNAc(b1-3)Gal(b1-3)[Fuc(a1-4)]GlcNAc
# Procedure, shortened: as §1
# [5] = target: Neu5Ac(a2-3)Gal(b1-3)[Fuc(a1-4)]GlcNAc(b1-3)Gal(b1-4)[Fuc(a1-3)]GlcNAc
# Procedure, shortened: as §1
# [6] = target: Neu5Ac(a2-3)Gal(b1-3)[GlcNAc(b1-6)]GalNAc
# Procedure, shortened: as §1
# [7] = target: Neu5Ac(a2-3)Gal(b1-3)[Neu5Ac(a2-6)]GalNAc
# Procedure, shortened: as §1
# [8] = target: Neu5Ac(a2-3)Gal(b1-3)[Neu5Ac(a2-6)]GlcNAc(b1-3)[Fuc(a1-3)[Gal(b1-4)]GlcNAc(b1-6)]Gal(b1-4)Glc
# Procedure, shortened: as §1
# [9] = target: Neu5Ac(a2-3)Gal(b1-3)]Neu5Ac(a2-3)Gal(b1-4)]GlcNAc
# Procedure, shortened: as §1
# Neu5Ac(a2-3)Gal(b1-4)Glc = target: Neu5Ac(a2-3)Gal(b1-4)Glc
# Procedure, shortened: as §1
# [10] = target: Neu5Ac(a2-3)Gal(b1-4)GlcNAc
# Procedure, shortened: as §1
# [11] = target: Neu5Ac(a2-3)Gal(b1-4)GlcNAc(b1-2)Man
# Procedure, shortened: as §1
# [12] = target: Neu5Ac(a2-3)Gal(b1-4)GlcNAc(b1-2)Man(a1-3)[GlcNAc(b1-4)][Neu5Ac(a2-3)Gal(b1-4)GlcNAc(b1-2)Man(a1-6)]Man(b1-4)GlcNAc(b1-4)GlcNAc
# Procedure, shortened: as §1
# [13] = target: Neu5Ac(a2-3)Gal(b1-4)GlcNAc(b1-2)Man(a1-3)[Neu5Ac(a2-3)Gal(b1-4)GlcNAc(b1-2)Man(a1-6)]Man(b1-4)GlcNAc(b1-4)GlcNAc
# Procedure, shortened: as §1
# [14] = target: Neu5Ac(a2-3)Gal(b1-4)GlcNAc(b1-2)Man(a1-3)[Neu5Ac(a2-3)Gal(b1-4)GlcNAc(b1-2)Man(a1-6)]Man(b1-4)GlcNAc(b1-4)[Fuc(a1-6)]GlcNAc
# Procedure, shortened: as §1
# [15] = target: Neu5Ac(a2-3)Gal(b1-4)GlcNAc(b1-2)Man(a1-3)[Neu5Ac(a2-6)Gal(b1-4)GlcNAc(b1-2)Man(a1-6)]Man(b1-4)GlcNAc(b1-4)GlcNAc
# Procedure, shortened: as §1
# [16] = target: Neu5Ac(a2-3)Gal(b1-4)GlcNAc(b1-2)[Neu5Ac(a2-3)Gal(b1-4)GlcNAc(b1-4)]Man(a1-3)[GlcNAc(b1-4)][Neu5Ac(a2-3)Gal(b1-4)GlcNAc(b1-2)[Neu5Ac(a2-3)Gal(b1-4)GlcNAc(b1-6)]Man(a1-6)]Man(b1-4)GlcNAc(b1-4)GlcNAc
# Procedure, shortened: as §1
# [17] = target: Neu5Ac(a2-3)Gal(b1-4)GlcNAc(b1-2)[Neu5Ac(a2-3)Gal(b1-4)GlcNAc(b1-4)]Man(a1-3)[GlcNAc(b1-4)][Neu5Ac(a2-3)Gal(b1-4)GlcNAc(b1-4)Man(a1-6)]Man(b1-4)GlcNAc(b1-4)GlcNAc
# Procedure, shortened: as §1
# [18] = target: Neu5Ac(a2-3)Gal(b1-4)GlcNAc(b1-2)[Neu5Ac(a2-3)Gal(b1-4)GlcNAc(b1-6)]Man(a1-6)[Neu5Ac(a2-3)Gal(b1-4)GlcNAc(b1-2)Man(a1-3)][GlcNAc(b1-4)]Man(b1-4)GlcNAc(b1-4)GlcNAc
# Procedure, shortened: as §1
# [19] = target: Neu5Ac(a2-3)Gal(b1-4)GlcNAc(b1-3)Gal
# Procedure, shortened: as §1
# [20] = target: Neu5Ac(a2-3)Gal(b1-4)GlcNAc(b1-3)Gal(b1-3)GlcNAc
# Procedure, shortened: as §1
# [21] = target: Neu5Ac(a2-3)Gal(b1-4)GlcNAc(b1-3)Gal(b1-4)GlcNAc
# Procedure, shortened: as §1
# [22] = target: Neu5Ac(a2-3)Gal(b1-4)GlcNAc(b1-3)Gal(b1-4)GlcNAc(b1-2)Man(a1-3)[Neu5Ac(a2-3)Gal(b1-4)GlcNAc(b1-3)Gal(b1-4)GlcNAc(b1-2)Man(a1-6)]Man(b1-4)GlcNAc(b1-4)GlcNAc
# Procedure, shortened: as §1
# [23] = target: Neu5Ac(a2-3)Gal(b1-4)GlcNAc(b1-3)Gal(b1-4)GlcNAc(b1-3)Gal(b1-4)GlcNAc
# Procedure, shortened: as §1
# [24] = target: Neu5Ac(a2-3)Gal(b1-4)GlcNAc(b1-3)Gal(b1-4)GlcNAc(b1-3)Gal(b1-4)GlcNAc(b1-2)Man(a1-3)[Neu5Ac(a2-3)Gal(b1-4)GlcNAc(b1-3)Gal(b1-4)GlcNAc(b1-3)Gal(b1-4)GlcNAc(b1-2)Man(a1-6)]GalNAc
# Procedure, shortened: as §1
# [25] = target: Neu5Ac(a2-3)Gal(b1-4)GlcNAc(b1-3)Gal(b1-4)GlcNAc(b1-3)GalNAc
# Procedure, shortened: as §1
# [26] = target: Neu5Ac(a2-3)Gal(b1-4)GlcNAc(b1-3)Gal(b1-4)GlcNAc(b1-3)[Neu5Ac(a2-3)Gal(b1-4)GlcNAc(b1-3)Gal(b1-4)GlcNAc(b1-6)]GalNAc
# Procedure, shortened: as §1
# [27] = target: Neu5Ac(a2-3)Gal(b1-4)GlcNAc(b1-3)Gal(b1-4)GlcNAc(b1-6)[Gal(b1-3)]GalNAc
# Procedure, shortened: as §1
# [28] = target: Neu5Ac(a2-3)Gal(b1-4)GlcNAc(b1-3)Gal(b1-4)[Fuc(a1-3)]GlcNAc
# Procedure, shortened: as §1
# [29] = target: Neu5Ac(a2-3)Gal(b1-4)GlcNAc(b1-3)GalNAc
# Procedure, shortened: as §1
binder,measurement,setting,value
"Epa1-NP-mutant-Y228A (Candida glabrata), Q6VBJ0 (protein) MILNPALFLNKCVCIYTTLILLLLTNGGYATSSNDISLASKDPTTFPLGCSPDITTPKKGLSMELYSYDFRKKGSYPCWDAAYLDPNYPRTGYKSHRLLAKVDGVTGNINFYYHATKGCTPQLGHLPASYNYPKPLTMTNFTMLLYGYFRPKVTGFHTFTISADDLLFVNFGAGNAFDCCRRDSSADHFGNYQAYAIWGSKTAKDELTVHLDAGVYYPIRLFYNNREADGALSFTFKTESNENTVSDFSEYFFSLDDTEEGCPGLISYDSSCASVKTSKIIGIDYHTETPNENLVPITKTIYHLGIPCTGTTTTPLCGSGFYDPLANKCVTINTSSTSSVTKTTSHTTSKEVSFHSSISSQKTLIPKSIPSPYGPIKSQSIPTEMETSSEISSSEYAFSDVISTPSHSPYTKKHSSLNSSSYTSTVIHSLTSYSISQGIFSTSLSEQNITSKSSTDKFSTATSMSNNITQSSIIISQFSTNNENYTTTSMHTSSDKISTETLNNSISTTTSILFSNSSTILKNNTTIISSDKDTHYHPVNPTIVCSTNKTEIICASITQPSISNSNNHWSSSVLKFNSTTVRSTLPSSAGSNETSINVPFSSSTESNTSTSSTSTSNSKMVRSTLPSSAGSNETSISVPFSSSTESNTSTSSTSTSNSKMVRSTLPSSAGSNETSINVPFSSSTESNTSTSSTSTSNSKTVRSTPFSSAGIIMTSLSQRNNKSASSYASSNSKCYNTADSCRKVHSTPSYLLTSSYTSEGVDYDCSLVSTKLKINDTNCVNNKHTTKSCLKTSVTTTIPTLEIKTARKSSSNTIGLHSYPTSSPNKSISSAPIIGYISSFKTIKTASPSYQTSDLTTITTITSLNNPGSTAVENTHESNDKSRKTSSNDISSKHSVIKETKDAVESSNKSHQTNTLKCSSIIIASSSHNSYESLGGTTLTLTLSKVYSPQNNDTLPFLEISEVNPSRTVLPESSKMMQYLTSTEERNKTARNTIATNIVSISTFHFEGEGNAIRMGYTQLLLMLIGIIVMNIGT",glycan array binding signal (z-score),[1],-0.295
same,glycan array binding signal (z-score),[2],-0.164
same,glycan array binding signal (z-score),[3],-0.24
same,glycan array binding signal (z-score),[4],-0.128
same,glycan array binding signal (z-score),[5],-0.243
same,glycan array binding signal (z-score),[6],-0.217
same,glycan array binding signal (z-score),[7],-0.228
same,glycan array binding signal (z-score),[8],-0.172
same,glycan array binding signal (z-score),[9],-0.224
same,glycan array binding signal (z-score),Neu5Ac(a2-3)Gal(b1-4)Glc,-0.112
same,glycan array binding signal (z-score),[10],-0.231
same,glycan array binding signal (z-score),[11],-0.094
same,glycan array binding signal (z-score),[12],-0.274
same,glycan array binding signal (z-score),[13],-0.225
same,glycan array binding signal (z-score),[14],-0.172
same,glycan array binding signal (z-score),[15],-0.237
same,glycan array binding signal (z-score),[16],-0.2
same,glycan array binding signal (z-score),[17],-0.266
same,glycan array binding signal (z-score),[18],-0.291
same,glycan array binding signal (z-score),[19],-0.11
same,glycan array binding signal (z-score),[20],-0.192
same,glycan array binding signal (z-score),[21],-0.038
same,glycan array binding signal (z-score),[22],-0.209
same,glycan array binding signal (z-score),[23],-0.281
same,glycan array binding signal (z-score),[24],0.029
same,glycan array binding signal (z-score),[25],-0.153
same,glycan array binding signal (z-score),[26],-0.127
same,glycan array binding signal (z-score),[27],-0.211
same,glycan array binding signal (z-score),[28],-0.127
same,glycan array binding signal (z-score),[29],-0.218
